57 compounds from PMC4336329 (PLoS ONE, 2015) can be followed below.

About 2,200 (0.71%) of roughly 310,000 compounds showed an effect of 50% or more. The effect is printed as a negative number. The list shows a part of the results.

Chain of human ether-à-go-go-related gene (hERG) potassium channel (Q12809 whole entry, looked up): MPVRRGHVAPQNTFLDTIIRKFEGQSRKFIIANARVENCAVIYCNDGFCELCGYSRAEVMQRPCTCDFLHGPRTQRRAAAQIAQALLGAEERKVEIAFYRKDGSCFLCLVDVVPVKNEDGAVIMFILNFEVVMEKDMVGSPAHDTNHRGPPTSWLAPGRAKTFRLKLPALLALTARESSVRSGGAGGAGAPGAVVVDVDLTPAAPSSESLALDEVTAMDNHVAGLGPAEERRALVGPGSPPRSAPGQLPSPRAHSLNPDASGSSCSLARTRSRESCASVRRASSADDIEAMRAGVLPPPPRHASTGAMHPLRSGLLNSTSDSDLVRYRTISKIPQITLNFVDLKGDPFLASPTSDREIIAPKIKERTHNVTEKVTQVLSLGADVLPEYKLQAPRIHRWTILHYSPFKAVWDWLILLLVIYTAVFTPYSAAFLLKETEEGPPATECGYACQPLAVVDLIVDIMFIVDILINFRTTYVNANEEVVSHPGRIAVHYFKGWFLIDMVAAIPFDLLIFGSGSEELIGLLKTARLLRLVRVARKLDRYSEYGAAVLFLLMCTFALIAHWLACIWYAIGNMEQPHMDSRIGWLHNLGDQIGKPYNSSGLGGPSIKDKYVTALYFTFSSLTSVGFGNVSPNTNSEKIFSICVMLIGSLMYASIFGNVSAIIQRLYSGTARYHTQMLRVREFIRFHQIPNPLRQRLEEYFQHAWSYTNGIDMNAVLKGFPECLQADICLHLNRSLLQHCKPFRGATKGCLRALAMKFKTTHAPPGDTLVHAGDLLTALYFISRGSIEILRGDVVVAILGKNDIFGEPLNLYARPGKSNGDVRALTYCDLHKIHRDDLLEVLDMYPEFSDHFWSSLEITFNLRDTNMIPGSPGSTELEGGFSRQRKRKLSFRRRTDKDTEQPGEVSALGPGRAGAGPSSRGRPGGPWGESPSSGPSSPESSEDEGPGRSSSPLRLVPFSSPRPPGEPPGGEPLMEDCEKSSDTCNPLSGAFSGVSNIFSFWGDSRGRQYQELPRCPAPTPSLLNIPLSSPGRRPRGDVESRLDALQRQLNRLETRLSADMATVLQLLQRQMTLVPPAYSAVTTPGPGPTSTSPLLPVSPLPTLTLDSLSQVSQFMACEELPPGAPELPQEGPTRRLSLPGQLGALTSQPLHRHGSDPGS

This assay concerns the target human ether-à-go-go-related gene (hERG) potassium channel (human, UniProt Q12809). Put plainly: primary screen, population patch clamp on CHO cells stably expressing hERG.
On to `COc1ccc(OC)c2sc(N(CCN(C)C)C(=O)c3cc(Cl)sc3Cl)nc12.Cl`, for which the “hERG current change (%, negative = inhibition) at 1uM” value was found to be 11.4%.
For `CCOC(=O)CCCn1nc(C)n2c(cc3sccc32)c1=O`, the “hERG current change (%, negative = inhibition) at 1uM” value is listed as -7.67%.
In the case of `COc1ccc(NC(=O)c2cc([N+](=O)[O-])ccc2NC(=O)CNCc2ccccn2)c(OC)c1`, the “hERG current change (%, negative = inhibition) at 1uM” value was determined as 9.51%.
As for `Cc1ccc(S(=O)(=O)Nc2nc(C)c(C(=O)N/N=C/c3ccccc3)s2)cc1`, the figure is 11%; as for `COc1ccc(C(=O)Nc2ccc(S(=O)(=O)N3CCN(C)CC3)cc2)cc1`, 16.1%; as for `O=C(Nc1nc2c(s1)CCCC2)C1COc2ccccc2O1` (stereo not drawn), 8.29%.
In the case of `Cc1ccc(C)c(SCC(=O)NNC(=O)c2csc(N3CCOCC3)n2)c1`, the “hERG current change (%, negative = inhibition) at 1uM” value is recorded as -25.3%.
In the case of `CSc1cccc(NC(=S)N2CCC(N(C)C3CCCCC3C)CC2)c1` (stereo not drawn), the “hERG current change (%, negative = inhibition) at 1uM” value is recorded as -20.1%.
As to `COC(=O)CCC(=O)N1CCOCCOCCOCC1`, the “hERG current change (%, negative = inhibition) at 1uM” value came out at 7.09%.
Consider `CC(Cc1ccccc1)NC(=O)/C=C/c1ccc([N+](=O)[O-])cc1` (stereo not drawn), for which the “hERG current change (%, negative = inhibition) at 1uM” value is -13.4%.
On to `COc1ccc(-c2nc3c(c4nnc(SC(C)C(=O)Nc5ccccc5)n24)COC(C)(C)C3)cc1` (stereo not drawn), for which the “hERG current change (%, negative = inhibition) at 1uM” value turned out to be 5.68%.
For the compound `CCOc1ccc(S(=O)(=O)Nc2cccc(C(=O)N3CCN(c4cccc(OC)c4)CC3)c2)cc1`, the “hERG current change (%, negative = inhibition) at 1uM” value is recorded as 13%.
Consider `O=C(NCc1cccs1)C1CCCN(S(=O)(=O)c2cnc[nH]2)C1` (stereo not drawn), for which the “hERG current change (%, negative = inhibition) at 1uM” value was 13%.
As to `CC1(C)NC(=O)N(CCOc2ccc3c(c2)CCC3)C1=O`, the “hERG current change (%, negative = inhibition) at 1uM” value worked out at 0.869%.
As for `COCCNC(=O)CN1CCC(NC(=O)Nc2ccc(C(F)(F)F)cc2)CC1`, the “hERG current change (%, negative = inhibition) at 1uM” value is -19.5%.
As to `COc1cccc(CN(C)C(=O)c2ccc(OCC(=O)Nc3cccc(C(F)(F)F)c3)c(OC)c2)c1`, the “hERG current change (%, negative = inhibition) at 1uM” value was 1.15%.
For `CC1=NN(/C(=N\c2nnc(C)s2)Nc2ccccc2)[C@H](c2ccc(C)cc2)S1` the value was 4.95%; for `COc1ccc(NC(=O)CN(C)C(=O)c2cnc(Cl)c(Cl)c2)cc1`, 5.13%; for `CC(=O)Nc1ccc(NC(=O)COC(=O)/C=C/c2ccc3c(c2)OCO3)cc1`, 14.3%.
`Cn1/c(=N/NC(=O)c2ccccc2F)sc2ccccc21`: the “hERG current change (%, negative = inhibition) at 1uM” value came out at 13.3%.
For `O=C(CSc1nc2[nH]ncc2c(=O)[nH]1)NCc1ccccc1` the value was 16.7%; for `CC1CCN(C(=S)c2cccc(O)c2)CC1`, 14.5%; for `O=C(CSc1nncn1-c1cccnc1)Nc1ccccc1[N+](=O)[O-]`, 15%.
`CCC(=O)c1ccc(N2CCCCC2)c(F)c1`: the “hERG current change (%, negative = inhibition) at 1uM” value turned out to be 14.4%.
With `O=C(Cc1ccc(S(=O)(=O)N2CCOCC2)s1)NNC(=O)c1ccccc1Cl`, the “hERG current change (%, negative = inhibition) at 1uM” value is recorded as 9.43%.
With `Cc1cc2ccccn2c1C(=O)c1ccc(C#N)cc1`, the “hERG current change (%, negative = inhibition) at 1uM” value is given as 19%.
Regarding `COc1ccc(CCC(=O)NNC(=O)c2cccs2)cc1`, the “hERG current change (%, negative = inhibition) at 1uM” value is given as 8.22%.
Regarding `Cc1c(N=Nc2ccc(O)cc2)c(=O)n(-c2ccccc2)n1C`, the “hERG current change (%, negative = inhibition) at 1uM” value turned out to be 6.25%.
For `Cc1ccc(C(=O)C(C)OC(=O)CN2C(=O)NC3(CCCC3)C2=O)cc1C` (stereo not drawn), the “hERG current change (%, negative = inhibition) at 1uM” value was found to be 15.6%.
For `C=CCc1c(C)nc(N)[nH]c1=O`, the “hERG current change (%, negative = inhibition) at 1uM” value was 11.9%.
Consider `CC1Sc2ccc(S(=O)(=O)CCC(=O)Nc3ccccn3)cc2NC1=O` (stereo not drawn), for which the “hERG current change (%, negative = inhibition) at 1uM” value came to 18.3%.
For the compound `O=C(CC(c1ccco1)S(=O)(=O)c1ccccc1)c1ccccc1` (stereo not drawn), the “hERG current change (%, negative = inhibition) at 1uM” value amounted to 6.99%.
In the case of `CCCc1nnc(NC(=O)CCC(=O)NCc2ccccc2Cl)s1`, the “hERG current change (%, negative = inhibition) at 1uM” value was 5.93%.
As for `Cc1cc(C)nc(SCC(=O)Nc2ccc(N3CCOCC3)cc2)n1`, the “hERG current change (%, negative = inhibition) at 1uM” value is -6.38%.
Consider `c1ccc(-c2nc3ccccc3s2)nc1`, for which the “hERG current change (%, negative = inhibition) at 1uM” value stood at 12.9%.
As for `COC(=O)[C@@H](NC(=O)NCc1ccccc1Cl)C(C)C`, the figure is 12.1%.
With `COc1ccc(CCNC(=O)Cn2nc(C)n3nc(-c4ccccc4)cc3c2=O)cc1OC`, the “hERG current change (%, negative = inhibition) at 1uM” value was 11.9%.
In the case of `O=C(O)c1cc2cc(F)ccc2[nH]1`, the “hERG current change (%, negative = inhibition) at 1uM” value is on record as 14.3%.
For `O=C(c1cc(-c2cccs2)nn1-c1ccccc1)N1CCN(S(=O)(=O)c2ccccc2)CC1` the value was 9.21%; for `CCOC(=O)c1cnn(-c2cc(C)c3ccccc3n2)c1N`, -5.92%; for `CCN(CC(=O)Nc1ccccc1OC)C(=O)Cn1cnc2ccccc2c1=O`, 4.69%.
With `Cc1ccc2[nH]c(C(=O)NN=C3CCCCC3)c(-c3ccccc3)c2c1`, the “hERG current change (%, negative = inhibition) at 1uM” value turned out to be 2.8%.
`CC(C(=O)Nc1ccccc1)N(C)CCOc1ccccc1` (stereo not drawn): the “hERG current change (%, negative = inhibition) at 1uM” value is given as 1.72%.
In the case of `N#Cc1ccccc1NC(=O)CSC1=Nc2ccccc2C2CC=NN12` (stereo not drawn), the “hERG current change (%, negative = inhibition) at 1uM” value is reported as 5.39%.
As for `CCCN1Cc2cccc(C(=O)Nc3ccc(-c4nc5ccccc5[nH]4)cc3)c2C1=O`, the “hERG current change (%, negative = inhibition) at 1uM” value stood at 10.4%.
As for `COc1cc(C(=O)Nc2cccc3c2CCCC3)cc(OC)c1OC`, the “hERG current change (%, negative = inhibition) at 1uM” value is reported as 10.3%.
Regarding `O=C(NC(=S)Nc1cccc(NC(=S)NC(=O)c2ccco2)n1)c1ccco1`, the “hERG current change (%, negative = inhibition) at 1uM” value amounted to 16.4%.
As for `O=C(NCc1ccccc1)C(c1cccnc1)N(C(=O)c1ccccn1)c1cccc(F)c1` (stereo not drawn), the figure is 0.684%; as for `CCOc1ccc(C(CC(=O)O)NC(=O)C(Sc2ccccc2)c2ccccc2)cc1` (stereo not drawn), 13.1%; as for `Nc1nc(CN2CCN(Cc3ccc4c(c3)OCO4)CC2)nc(Nc2ccccc2)n1`, -77.4%.
For the compound `Cc1ccc(-n2nnnc2-c2cnn(-c3ccc(F)cc3)c2C(F)(F)F)cc1`, the “hERG current change (%, negative = inhibition) at 1uM” value is recorded as -1.22%.
Regarding `Cc1cccc(NC(=O)N2CCC(NC(=O)C3CCCCC3)CC2)c1`, the “hERG current change (%, negative = inhibition) at 1uM” value is 10.9%.
As for `CC1(C)CC(=O)C(N=Nc2cc(C(F)(F)F)ccc2Cl)=C(O)C1`, the figure is 8.53%.
As for `Cn1c(=O)c2sccc2n2c(CCCC(=O)NCCc3ccc(S(N)(=O)=O)cc3)nnc12`, the “hERG current change (%, negative = inhibition) at 1uM” value is given as 10.9%.
As to `CCCN1C2=NCCCN2c2ccccc21.Cl`, the “hERG current change (%, negative = inhibition) at 1uM” value is 7.07%.
Turning to `CCOC(=O)c1cnc(-c2ccccc2)nc1N`, the “hERG current change (%, negative = inhibition) at 1uM” value is 5.65%.
With `Nc1nc(NCc2ccco2)nc(Nc2cccc(F)c2)c1[N+](=O)[O-]`, the “hERG current change (%, negative = inhibition) at 1uM” value was determined as 18.1%.
